Measured values as given in the supplement of paper PMC10126150.
Values marked as one replicate rest on one cluster of the flow cell; about a third of the high ones do not repeat.

system: ATP; assay: switch fluorescence ratio, 500 uM ATP over buffer (Cy3 cluster intensity, sum of 5 cycles each) (fold (ratio)); higher = stronger signal-on switching upon ATP binding; sequences stand for … in TCGTCGGCAGCGTCAGATGTGTATAAGAGACAGTTTTTTTTTTTTTTTTTTTTTTTTT…TC; details: aptamer strand: ATP DNA aptamer (quencher-CACCTGGGGGAGTATTGCGGAGGAAGG + anchor), 100 nM annealed; ATP concentration: 500 uM; one replicate
In short: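 For every switch-domain sequence, the fluorescence ratio is the mean of per-cluster values, each being summed target-cycle Cy3 intensity over summed buffer-cycle Cy3 intensity. Clusters outside 100-1000 RFU were excluded. On a modified Illumina MiSeq flow-cell, the Cy3-labelled switching-strand clusters were annealed to 100 nM quencher-labelled ATP aptamer, imaged in selection buffer and then after 15 min with 500 uM ATP at 22 °C. Five such cycles were run, with NaOH stripping and re-annealing between them.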
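Further: ATP exposure 15 min at 22 °C before imaging.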

Sequence | switch fluorescence ratio
TGAGTATTCT | 1.02
TGAGTCGT | 0.994
TGAGTGTTAA | 0.974
TGAGTTAAAA | 1.03
TGAGTTCTAC | 0.909
TGAGTTGGTA | 0.966
TGAGTTTACA | 0.995
TGATAAACGA | 1.17
TGATAAGGCG | 1.05
TGATAATGTA | 1.02
TGATACGCTC | 1.13
TGATACTGGA | 0.976
TGATACTTT | 0.979
TGATAGATG | 1.03
TGATAGGTTT | 0.983
TGATAGTCGG | 0.959
TGATATACGG | 1.01
TGATATTGGG | 0.995
TGATCACTAC | 1.02
TGATCAGACT | 1
TGATCCTGTA | 0.982
TGATGAGGTT | 0.983
TGATGATGCA | 1.03
TGATGCCAGA | 1.01
TGATGCTGGA | 0.983
TGATGGTAGT | 0.981

Sequence | switch fluorescence ratio
TGATGTTGGA | 1.01
TGATTAAGTG | 0.954
TGATTCACCT | 1.12
TGATTCCCGT | 0.994
TGATTGGCGA | 1.2
TGATTGTTCC | 1.01
TGATTTGAAA | 0.999
TGATTTGCAT | 1.02
TGATTTGCCT | 1.01
TGCAAGACGT | 1.93
TGCAAGATGA | 1.11
TGCAAGCTGG | 0.997
TGCAATCAGA | 1.01
TGCAATGTAA | 0.997
TGCAATTAAA | 0.999
TGCACAACGG | 1.03
TGCACGAAGG | 0.968
TGCACGTGCT | 1.03
TGCAGACCTA | 1.06
TGCAGCTACT | 1.69
TGCAGGCCT | 0.964
TGCAGGCTGG | 1.01
TGCAGGGGAA | 1
TGCAGGTAGC | 0.941
TGCAGGTGTC | 1.51
TGCAGTAGCA | 1

Sequence | switch fluorescence ratio
TGCAGTGCGC | 1.03
TGCAGTTGCC | 1.05
TGCAGTTTTC | 1.08
TGCATCTGGA | 1.04
TGCATGACGA | 1.09
TGCATGTATA | 1.03
TGCATTAAAG | 1.02
TGCCAAACGC | 1.18
TGCCAAGTTA | 0.975
TGCCAATTAG | 1
TGCCAATTGC | 1.08
TGCCACCGCA | 1.3
TGCCACGCCA | 1.04
TGCCAGATAG | 1.05
TGCCAGCTTC | 1
TGCCATCAGA | 0.996
TGCCATCCTT | 1.11
TGCCATCTGA | 1.04
TGCCCCCCTA | 1.03
TGCCCGTAGG | 1.04
TGCCCTGGCT | 0.926
TGCCCTTCGC | 1.09
TGCCGCCTAC | 1.45
TGCCGCGGAG | 1.02
TGCCGCGGTT | 1.05
